Screen size: about 310,000 compounds; about 2,200 (0.71%) showed an effect of 50% or more. Effects have a minus sign here. The list shows a part of the results.

This is an account of results in article PMC4336329 (PLoS ONE, 2015).

The target of this assay is human ether-à-go-go-related gene (hERG) potassium channel (human, UniProt Q12809). Description: primary screen, population patch clamp on CHO cells stably expressing hERG.
Sequence of human ether-à-go-go-related gene (hERG) potassium channel (Q12809 whole entry, looked up): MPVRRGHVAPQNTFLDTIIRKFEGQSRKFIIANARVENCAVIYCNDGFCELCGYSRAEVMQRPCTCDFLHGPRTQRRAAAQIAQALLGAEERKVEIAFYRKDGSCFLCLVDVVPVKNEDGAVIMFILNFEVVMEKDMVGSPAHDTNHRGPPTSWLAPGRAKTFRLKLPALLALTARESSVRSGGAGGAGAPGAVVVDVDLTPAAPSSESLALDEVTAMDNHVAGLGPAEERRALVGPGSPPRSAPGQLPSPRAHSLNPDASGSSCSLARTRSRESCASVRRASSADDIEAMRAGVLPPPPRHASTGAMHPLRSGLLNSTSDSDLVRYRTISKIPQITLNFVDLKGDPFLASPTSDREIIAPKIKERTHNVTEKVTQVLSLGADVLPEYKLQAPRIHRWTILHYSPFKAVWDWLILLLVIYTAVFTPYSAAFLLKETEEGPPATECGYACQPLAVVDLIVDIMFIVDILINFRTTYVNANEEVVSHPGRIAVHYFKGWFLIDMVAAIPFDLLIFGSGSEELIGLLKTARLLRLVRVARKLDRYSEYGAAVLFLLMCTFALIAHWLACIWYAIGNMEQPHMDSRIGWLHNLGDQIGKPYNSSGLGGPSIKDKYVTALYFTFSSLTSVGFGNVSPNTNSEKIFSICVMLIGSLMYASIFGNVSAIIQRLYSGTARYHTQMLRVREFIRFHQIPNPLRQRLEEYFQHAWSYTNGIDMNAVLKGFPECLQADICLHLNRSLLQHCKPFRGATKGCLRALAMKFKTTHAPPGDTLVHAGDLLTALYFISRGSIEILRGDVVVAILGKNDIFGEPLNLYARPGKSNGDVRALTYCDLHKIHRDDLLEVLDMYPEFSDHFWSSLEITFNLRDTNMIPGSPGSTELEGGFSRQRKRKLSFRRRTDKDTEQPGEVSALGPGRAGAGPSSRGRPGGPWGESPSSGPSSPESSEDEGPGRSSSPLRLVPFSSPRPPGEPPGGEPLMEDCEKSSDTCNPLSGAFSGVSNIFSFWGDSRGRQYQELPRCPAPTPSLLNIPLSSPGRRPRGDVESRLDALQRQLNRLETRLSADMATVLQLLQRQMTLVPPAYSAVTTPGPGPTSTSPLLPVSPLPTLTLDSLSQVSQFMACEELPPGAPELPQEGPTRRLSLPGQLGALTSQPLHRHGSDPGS
For the molecule `COc1ccc(-c2nc(CN3CCC(C(=O)NC4CC4)CC3)c(C)o2)cc1OC`, the “hERG current change (%, negative = inhibition) at 1uM” value is given as 7.74%.

With `COc1ccc(NC(=S)N/N=C/c2cccn2Cc2ccc(F)cc2Cl)cc1`, the “hERG current change (%, negative = inhibition) at 1uM” value came to 11.1%. Then `O=C(Nc1ccc(N2CCN(C(=O)c3cccs3)CC2)cc1)c1cccnc1Cl`, with 3.47%; and `COc1ccc2c(/C=N/Nc3ccc(C(=O)O)cc3)c[nH]c2c1`, with 12.7%; and `CC(NC(=O)COc1ccccc1Cl)c1ccccc1` (centres unmarked), with 12.4%.

For `COC(=O)CC1C(=O)NCCN1C(=O)c1ccc2oc(C(C)C)nc2c1` (centres unmarked), the “hERG current change (%, negative = inhibition) at 1uM” value is 14.8%. Under `Cc1ccc(CCNC(=O)c2ccc3nc4ccccc4c(=O)n3c2)cc1` stands 14.3%; under `COc1ccc(CC(=O)Nc2cccc(-c3nnc(-c4ccc(C)cc4)o3)c2)cc1OC`, 7.69%; under `Cc1ccc(S(=O)(=O)Nc2ccc(O)c3ncccc23)cc1.Cl`, -0.0457%. Then `CC(NCCCOc1cccc2ccccc12)c1ccccc1.O=C(O)C(=O)O` (centres unmarked), with 9.88%; and `O=c1/c(=C/c2ccccn2)sc2nc3ccccc3n12`, with 9.03%; and `S=C(NCCc1ccccc1)NCCN1CCOCC1`, with 12.3%.

On to `Cc1cccc(NC(=O)c2oc(=O)c3ccccc3c2-c2ccccc2)c1C`, for which the “hERG current change (%, negative = inhibition) at 1uM” value is -0.162%. Under `Cc1nc(-c2ccccc2)[nH]c(=O)c1Oc1ccc(Cl)cc1Cl` stands -1.5%; under `O=C(CSc1nnc(CNC(=O)c2ccccc2)o1)NCc1ccco1`, 3.7%; under `COc1cccc(OC)c1C(=O)N1CCN(Cc2ccccc2C)CC1`, 0.875%. Under `Cc1ccc(-c2ocnc2C(=O)N2CCOCC2)cc1` stands 18.5%.

On to `COc1ccccc1C(=O)OCC(=O)Nc1ccc(Cl)cn1`, for which the “hERG current change (%, negative = inhibition) at 1uM” value was found to be 11.9%. Then `COc1ccc(-c2cn3c(C)c(C(=O)N4CCN(c5ccccc5F)CC4)sc3n2)cc1`, with -7.07%; and `COC(CNC(=O)c1ccc2c(c1)ncn2-c1cccc(F)c1)OC`, with 10.9%. Regarding `CCN(CC)c1ccc(C(=O)OCC(=O)Nc2ccc3[nH]c(=O)[nH]c3c2)cc1`, the “hERG current change (%, negative = inhibition) at 1uM” value is listed as 8.56%. Regarding `Cc1cccc(CCNC(=O)CC2C(=O)NCCN2Cc2ccc(F)c(F)c2)n1` (centres unmarked), the “hERG current change (%, negative = inhibition) at 1uM” value was 11.6%. For `COC(C(=O)NCc1ccc(C)cc1)c1ccccc1` (centres unmarked), the “hERG current change (%, negative = inhibition) at 1uM” value came to 14.4%.

As for `Cc1cc(-c2nc3ncccc3o2)ccc1NC(=S)NC(=O)c1ccco1`, the “hERG current change (%, negative = inhibition) at 1uM” value amounted to 11%. Under `CCN(CC)C(=O)c1ccc(COc2ccccc2Cl)cc1` stands -5.76%; under `O=C(Cn1cnc2c(cnn2-c2ccccc2)c1=O)NCc1ccccc1`, 0.424%; under `Cc1nn(CC(=O)Nc2ccc3nc4n(c(=O)c3c2)CCCC4)c(C)c1[N+](=O)[O-]`, 8.04%. Under `COc1cc(NC(=O)COC(C)=O)cc(OC)c1OC` stands 15.2%; under `Cc1cccc(NC(=O)c2cccnc2Oc2ccccc2)c1C(=O)O`, 20.9%; under `C[C@@H]1O[C@@H](O[C@H]2C[C@@H](O)[C@]3(CO)[C@@H]4C(CC[C@]3(O)C2)[C@@]2(O)CC[C@H](C3COC(=O)C3)[C@@]2(C)C[C@H]4O)[C@H](O)[C@H](O)[C@H]1O` (some centres unmarked), 18.2%. With `CCOP(=O)(OCC)C(NC(=O)NC)C(N)=O` (centres unmarked), the “hERG current change (%, negative = inhibition) at 1uM” value is recorded as 14.6%. For `O=S1(=O)Nc2c(ccc3cccnc23)-c2ccccc21`, the “hERG current change (%, negative = inhibition) at 1uM” value was found to be 3.29%. Then `O=C(COc1cccc(-n2cnnn2)c1)Nc1ccccc1`, with 8.81%. Then `O=C(CCn1nc(-c2ccc(Cl)cc2)ccc1=O)N1CCC2(CC1)OCCO2`, with -3.93%; and `N#Cc1c(SCC(=O)Nc2ccc(Cl)cc2Cl)sc2c(O)cc(=O)[nH]c12`, with 6.67%; and `CCOCCCNC(=O)C(NC(=O)Cc1c[nH]c2ccccc12)c1ccccc1` (centres unmarked), with 6.91%.

Take `Cc1ccc(C(c2nnnn2C2CCCCC2)N(C)C2CCCCC2)cc1` (centres unmarked): the “hERG current change (%, negative = inhibition) at 1uM” value was -6.61%. As for `Cc1ccc(S(=O)(=O)NC2CC(C)(C)NC(C)(C)C2)cc1C`, the “hERG current change (%, negative = inhibition) at 1uM” value is 5.61%. Take `CCCCCCC(=O)c1c(O)n(-c2ccccc2OC)c(=O)[nH]c1=O`: the “hERG current change (%, negative = inhibition) at 1uM” value is 3.21%. Then `CCCCn1c(N)c(N(CC(C)C)C(=O)CSc2n[nH]c(-c3ccc(C)cc3)n2)c(=O)[nH]c1=O`, with 5.09%. Under `O=C1/C(=C\c2cc(Cl)c(O)c(Cl)c2)SC(=S)N1Cc1ccccc1` stands 14.4%; under `Cc1csc(NC(=O)C2CCCN2C(=O)Oc2ccccc2)n1` (centres unmarked), -11.7%; under `CC(=O)Nc1nnc(-c2ccc(Cl)s2)o1`, 2.65%. With `CCCCC(=O)Nc1nnnn1CCC`, the “hERG current change (%, negative = inhibition) at 1uM” value worked out at 8.65%. Under `O=C(NC(=S)N1CCCCC1)c1csc([N+](=O)[O-])c1` stands 12.8%; under `O=C(COc1ccc([N+](=O)[O-])cc1)NNC(=O)Nc1ccc([N+](=O)[O-])cc1`, 9.68%.

As for `Cc1c(Br)cc(C(=O)NC2CCCCC2)c(C)c1C`, the “hERG current change (%, negative = inhibition) at 1uM” value stood at 19.7%. Take `Cn1c(CSCc2ccccc2Cl)n[nH]c1=S`: the “hERG current change (%, negative = inhibition) at 1uM” value is reported as 8.46%. Regarding `CCCCCCCC/C=C\CCCCCCCC(=O)O`, the “hERG current change (%, negative = inhibition) at 1uM” value turned out to be 11.4%. `Nc1sc2c(c1C(=O)NCCc1ccccc1)CCC2`: the “hERG current change (%, negative = inhibition) at 1uM” value came out at 6.47%.

Regarding `Cc1nnc(N=c2ssnc2Cl)o1`, the “hERG current change (%, negative = inhibition) at 1uM” value is listed as 17.9%.

In the case of `Cc1nn(Cc2ccc(F)cc2)c2sc(C(=O)Nc3ccc(N4CCOCC4)cc3N3CCOCC3)cc12`, the “hERG current change (%, negative = inhibition) at 1uM” value turned out to be 8.87%.

`O=C(CSc1nnc(-c2cccs2)n1-c1ccccc1)Nc1ccccc1`: the “hERG current change (%, negative = inhibition) at 1uM” value is -15.8%.

Take `CCc1ccc(N2CC(C(=O)Nc3nnc(CC)s3)CC2=O)cc1` (centres unmarked): the “hERG current change (%, negative = inhibition) at 1uM” value stood at 13%. Consider `CCOCCCNC(=O)C(c1ccc(C)cc1)N(Cc1ccc2c(c1)OCO2)C(=O)CNC(C)=O` (centres unmarked), for which the “hERG current change (%, negative = inhibition) at 1uM” value is on record as 8.95%.

For the molecule `CN(CCc1ccccc1)C1CCCN(S(=O)(=O)CC(F)(F)F)C1` (centres unmarked), the “hERG current change (%, negative = inhibition) at 1uM” value amounted to 7.27%.

With `CN(C)CP(=O)(O)CN(C)C=O`, the “hERG current change (%, negative = inhibition) at 1uM” value came out at 13.5%. Then `CCCCN(CC)Cc1ccc(CNC(=O)Nc2ccc(OC)cc2OC)o1`, with 4.06%; and `S=C(Nc1ccc(Br)cc1)N1CCN(C2CCCCC2)CC1`, with -11.3%; and `Cc1nc(N/C(N)=N/S(=O)(=O)c2ccc([N+](=O)[O-])cc2)nc2ccccc12`, with -23.9%. `CNC(=O)c1nc(C)c(C2(C)CC(c3cccc([N+](=O)[O-])c3)=NO2)s1` (centres unmarked): the “hERG current change (%, negative = inhibition) at 1uM” value is reported as 3.24%. Take `COc1ccc(C(=O)NNC(=O)c2cc3cc([N+](=O)[O-])ccc3oc2=O)cc1OC`: the “hERG current change (%, negative = inhibition) at 1uM” value worked out at 11.1%. Regarding `Cc1cccc(N2CCN(C(=O)COc3cccc4c3OC(C)(C)C4)CC2)c1C`, the “hERG current change (%, negative = inhibition) at 1uM” value was -5.47%. In the case of `COc1ccc(Cc2nnc(NC(=O)c3ccco3)s2)cc1OC`, the “hERG current change (%, negative = inhibition) at 1uM” value is reported as 5.79%. Under `COc1ccc(Nc2nc(N3CCCC3)c3ccccc3n2)cc1.Cl` stands -15%; under `CC(C)(C)c1ccc(OCCC(=O)OCC(=O)NCc2ccccc2)cc1`, 8.28%.

Regarding `CCN1/C(=C\C(C)=O)Sc2ccc(OC)cc21`, the “hERG current change (%, negative = inhibition) at 1uM” value turned out to be 12.5%.

Regarding `O=C(CCC(=O)c1ccc(Br)cc1)Nc1ccc(F)cc1`, the “hERG current change (%, negative = inhibition) at 1uM” value amounted to 19.3%. Then `O=C(OCc1cccc([N+](=O)[O-])c1)c1ccc[nH]c1=O`, with 17.5%.

With `Cc1cccc(-c2cc3nc4c(c(NCc5ccco5)n3n2)CCCC4)c1`, the “hERG current change (%, negative = inhibition) at 1uM” value is recorded as -25.6%. Then `Cc1nc(SCC(=O)N2c3ccccc3Sc3ccccc32)n[nH]1`, with 10.8%; and `O=C(C[n+]1cc(-c2ccc(Br)cc2)n2c1CCCCC2)c1ccccc1.[Br-]`, with 9.14%; and `O=S(=O)(NC1CCCCCCC1)OCC(Cl)(Cl)Cl`, with 2.81%. Then `Cc1n[nH]c(C)c1S(=O)(=O)N1CCN(C(=O)c2ccco2)CC1`, with 8%; and `O=C(NCCc1ccccc1)C1CCC(=O)N(Cc2cccc(C(F)(F)F)c2)C1` (centres unmarked), with -8.75%.

In the case of `O=C(c1cc(-c2cccc(O)c2)on1)N1CCCCC1`, the “hERG current change (%, negative = inhibition) at 1uM” value is reported as 8.83%.

On to `Cc1nc(NC(=O)/C=C/c2ccco2)sc1C`, for which the “hERG current change (%, negative = inhibition) at 1uM” value is recorded as 3.02%. Regarding `Cc1ccc(NC(=O)COc2ccccc2C(=O)NCCc2ccccc2)cc1`, the “hERG current change (%, negative = inhibition) at 1uM” value is listed as 7.45%. Under `CC1(C)CC(=O)c2sc(NS(C)(=O)=O)nc2C1` stands -4.76%.

As to `CCOCCCNC(=O)C(c1ccc(Cl)cc1)N(Cc1cccs1)C(=O)CNC(C)=O` (centres unmarked), the “hERG current change (%, negative = inhibition) at 1uM” value was determined as 17.5%. For `CCN(C)c1ccc(/C=N\n2nnnc2N)cc1`, the “hERG current change (%, negative = inhibition) at 1uM” value turned out to be 13.2%. Take `CCC(C)NC(=O)Nc1ccccc1C` (centres unmarked): the “hERG current change (%, negative = inhibition) at 1uM” value is recorded as 19.7%. Under `CCOC(=O)N1CCC(NC(=O)C2CCCN(C(=O)N3CCOc4ccccc43)C2)CC1` (centres unmarked) stands 11.2%. With `CCOC(=O)c1c(NC(=O)COC(=O)Cc2c[nH]c3ccccc23)sc(C(=O)N(C)C)c1C`, the “hERG current change (%, negative = inhibition) at 1uM” value was -6.05%. Turning to `Cc1ccc(NC(=O)CN2C(=O)NC(C)(C3CC3)C2=O)c([N+](=O)[O-])c1` (centres unmarked), the “hERG current change (%, negative = inhibition) at 1uM” value was -2.74%. Then `COc1ccccc1NC(=S)N1CCN(C/C=C/c2ccccc2)CC1`, with 7.29%; and `COCCn1c(SCC(=O)Nc2cccc(S(N)(=O)=O)c2)nc2cc(Cl)ccc2c1=O`, with -0.843%; and `CCOCCCN1C(=O)CN(C2CCCCC2)C(=O)C1c1ccc(OC)c(OC)c1` (centres unmarked), with 10.8%. Then `CNc1nc(-c2ccc3c(c2)CCN3C(=O)c2cccc(F)c2)cs1`, with 7.55%.
